# The other results are listed elsewhere or left out.
# Tested on: HSkMC (human skeletal muscle cells)
# Test: cytotoxicity call (relative viability < 0.9)
# Conditions: 10 µM
row,Structure (SMILES),cytotoxicity call
1,C=CCNC(=O)[C@H]1[C@@H]2C(=O)O[C@@H](c3ccccc3)[C@@H](c3ccccc3)N2[C@@H](c2ccc(O)cc2)[C@]12C(=O)Nc1ccc(C#Cc3ccc(OC)cc3)cc12,inactive
2,CCOC(=O)CCCCCC(=O)Nc1ccc2c(c1)C(=O)N([C@@H](C)CO)C[C@@H](C)[C@H](CN(C)C(=O)Nc1ccccc1)OCCCC[C@H](C)O2,inactive
3,CN1C(=O)c2cc(NC(=O)c3cnccn3)ccc2OC[C@@H]2O[C@H](CC(=O)N[C@H]3CCN(Cc4ccccc4)C3)CC[C@@H]21,inactive
4,C[C@@H]1CCCCO[C@H](CN(C)C(=O)Nc2ccc(F)cc2)[C@H](C)CN([C@@H](C)CO)C(=O)c2cc(NC(=O)CCCN(C)C)ccc2O1,inactive
5,CC(C)(C)[C@H]1COC(=O)[C@@H](NC(=O)OCC2c3ccccc3-c3ccccc32)CC=CC[C@@H](CC(=O)N[C@H](CO)Cc2ccccc2)C(=O)N1,inactive
6,C[C@H]1CN([C@@H](C)CO)C(=O)Cc2cc(NC(=O)CCN3CCOCC3)ccc2O[C@@H]1CN(C)C(=O)Nc1ccc(F)cc1,inactive
7,C[C@@H]1CCCCO[C@H](CN(C)Cc2ccc(C(=O)O)cc2)[C@H](C)CN([C@H](C)CO)C(=O)c2cc(NC(=O)Nc3ccc4c(c3)OCO4)ccc2O1,inactive
8,C[C@H](CO)N1C[C@H](C)[C@H](CN(C)C(=O)Nc2ccc(N3CCCCC3)cc2)OCc2cnnn2CCCC1=O,inactive
9,C[C@@H]1CCCCO[C@H](CN(C)C(=O)Nc2ccc3c(c2)OCO3)[C@H](C)CN([C@@H](C)CO)C(=O)c2cc(NC(=O)Cc3ccccc3)ccc2O1,inactive
10,CN1C(=O)c2cc(NC(=O)Cc3cccs3)ccc2OC[C@@H]2O[C@@H](CC(=O)NCCc3ccncc3)CC[C@H]21,inactive
11,C=CCOC(=O)[C@@H]1[C@H]2C(=O)O[C@H](c3ccccc3)[C@H](c3ccccc3)N2[C@H](c2ccc(OCCOC(=O)[C@@H]3C[C@@H]4C(=O)NCC(=O)N4[C@@H]3c3ccc(O)cc3)cc2)[C@@]12C(=O)Nc1ccc(I)cc12,inactive
12,COc1ccc(S(=O)(=O)Nc2ccc3c(c2)CC(=O)N([C@H](C)CO)C[C@@H](C)[C@@H](CN(C)S(=O)(=O)c2ccc(C)cc2)O3)cc1,inactive
13,O=C1CNC(=S)N1c1ccccc1,inactive
14,CO[C@H]1CN(C)C(=O)c2ccc(NC(=O)c3ccc(F)cc3)cc2OC[C@H](C)N(C(=O)CN(C)C)C[C@@H]1C,inactive
15,Cc1ccc(S(=O)(=O)Nc2cccc3c2O[C@@H](CN(C)S(=O)(=O)c2ccccc2)[C@H](C)CN([C@H](C)CO)C3=O)cc1,inactive
16,C[C@@H]1CCCCO[C@H](CN(C)C(=O)C2CCCCC2)[C@@H](C)CN([C@H](C)CO)C(=O)c2cc(NC(=O)Nc3ccc4c(c3)OCO4)ccc2O1,inactive
17,C[C@@H]1O[C@@H](O[C@@H]2[C@@H](O)[C@H](C)O[C@@H](OC[C@H]3O[C@@H](Oc4c(-c5ccc(O)c(O)c5)oc5cc(O)cc(O)c5c4=O)[C@@H](O)[C@@H](O)[C@@H]3O)[C@@H]2O)[C@H](O)[C@H](O)[C@H]1O,inactive
18,CC(Oc1c(Cl)cccc1Cl)C1=NCCN1.Cl (stereo unspecified),inactive
19,C[C@@H]1CN([C@@H](C)CO)C(=O)c2cc(NS(=O)(=O)c3cn(C)cn3)ccc2O[C@@H](C)CCCCO[C@@H]1CN(C)C(=O)Nc1cccc2ccccc12,active
20,N#CCSc1ncnc2c1cnn2CCO,inactive
21,COc1ccc(S(=O)(=O)Nc2ccc3c(c2)C(=O)N([C@H](C)CO)C[C@H](C)[C@@H](CN(C)C(=O)NC(C)C)O3)cc1,inactive
22,COc1cccc(S(=O)(=O)N(C)C[C@H]2Oc3ncc(-c4cccc(C(=O)N(C)C)c4)cc3C(=O)N([C@H](C)CO)C[C@H]2C)c1,inactive
23,O=C(C[C@H]1CC[C@H]2[C@@H](COC[C@H](O)CN2S(=O)(=O)c2ccc(Oc3ccccc3)cc2)O1)NCCN1CCCCC1,inactive
24,OC[C@@H]1CC[C@@H]2O[C@H](CCc3ccc(C#Cc4ccccc4)cc3)[C@@H](n3cc(-c4ccccc4)nn3)C[C@@H]2O1,active
25,C[C@@H]1O[C@@H](O[C@@H]2[C@@H](O)[C@H](OCCc3ccc(O)c(O)c3)O[C@H](CO)[C@H]2O)[C@H](O)[C@H](O)[C@H]1O,inactive
26,C[C@@H]1CCCCO[C@H](CN(C)C(=O)CCC(F)(F)F)[C@H](C)CN([C@@H](C)CO)C(=O)c2cc(NC(=O)Nc3ccc4c(c3)OCO4)ccc2O1,inactive
